Source: publication PMC4336329 (PLoS ONE, 2015)
Among all 310,000 compounds or so, about 14,000 (4.5%) showed an effect of 50% or more. Effects have a minus sign here. Some of the results follow.

Molecular target: human ether-à-go-go-related gene (hERG) potassium channel (human, UniProt Q12809)
Test: primary screen, population patch clamp on CHO cells stably expressing hERG
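Further: peak tail current of the secondary pulse compared with the same well before compound.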

Chain of human ether-à-go-go-related gene (hERG) potassium channel (Q12809 whole entry, looked up): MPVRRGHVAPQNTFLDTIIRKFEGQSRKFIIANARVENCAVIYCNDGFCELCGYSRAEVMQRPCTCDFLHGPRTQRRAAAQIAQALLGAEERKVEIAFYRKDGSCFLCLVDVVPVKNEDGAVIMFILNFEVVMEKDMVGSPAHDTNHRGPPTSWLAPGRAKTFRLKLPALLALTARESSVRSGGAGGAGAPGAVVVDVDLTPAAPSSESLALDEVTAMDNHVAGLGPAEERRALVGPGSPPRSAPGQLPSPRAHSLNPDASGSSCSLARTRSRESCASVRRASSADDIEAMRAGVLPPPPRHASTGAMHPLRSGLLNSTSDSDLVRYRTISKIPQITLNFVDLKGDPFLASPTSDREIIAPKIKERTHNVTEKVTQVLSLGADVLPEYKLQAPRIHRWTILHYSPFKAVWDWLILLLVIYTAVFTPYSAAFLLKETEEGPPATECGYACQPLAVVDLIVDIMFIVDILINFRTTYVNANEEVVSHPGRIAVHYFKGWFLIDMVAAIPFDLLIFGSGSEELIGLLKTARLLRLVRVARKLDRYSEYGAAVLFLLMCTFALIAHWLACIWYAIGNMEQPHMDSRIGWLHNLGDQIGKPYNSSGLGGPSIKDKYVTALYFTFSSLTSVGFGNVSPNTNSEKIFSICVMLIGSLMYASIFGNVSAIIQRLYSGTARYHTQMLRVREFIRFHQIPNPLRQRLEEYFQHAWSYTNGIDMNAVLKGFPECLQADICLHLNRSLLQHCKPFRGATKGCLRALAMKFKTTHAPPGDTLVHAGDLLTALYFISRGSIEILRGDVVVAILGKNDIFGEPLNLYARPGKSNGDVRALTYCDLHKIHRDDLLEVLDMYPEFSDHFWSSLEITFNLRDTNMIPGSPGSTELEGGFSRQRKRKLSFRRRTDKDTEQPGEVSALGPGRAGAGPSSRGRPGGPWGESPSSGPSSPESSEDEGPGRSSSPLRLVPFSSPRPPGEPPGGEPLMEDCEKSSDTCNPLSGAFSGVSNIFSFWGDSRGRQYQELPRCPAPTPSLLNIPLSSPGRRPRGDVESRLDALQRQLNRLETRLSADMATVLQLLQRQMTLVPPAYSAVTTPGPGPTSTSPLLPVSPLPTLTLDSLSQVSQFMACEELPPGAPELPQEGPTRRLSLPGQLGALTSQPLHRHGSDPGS

First: CCOC(=O)N1CCC(n2c(SCC(=O)NCc3ccccc3)nc3ccccc3c2=O)CC1
Second: CN(C(=O)c1ccccc1C(=O)OCC(=O)NCc1ccccc1)C1CCCCC1
The “hERG current change (%, negative = inhibition) at 10uM” value of the first is lower: -46.6% for the first, -13.2% for the second.

Going from `CC1CC1C(=O)OCC(=O)NC(=O)c1ccccc1` (stereo not shown) to `Cc1ccc2c(N)c(C(=O)c3ccccc3)sc2n1`, the “hERG current change (%, negative = inhibition) at 10uM” value falls from 6.93% to -0.442%.

First: COc1cccc(CN2CCNC(=O)C2CC(=O)NCCn2cccn2)c1OC (stereo not shown)
Second: COc1ccc(CC(=O)NCCS(=O)(=O)N2CCN(c3ccccc3)CC2)cc1OC
The “hERG current change (%, negative = inhibition) at 10uM” value of the first is higher: 8.5% for the first, -9.09% for the second.

First: Cc1cccc(NC(=O)CSc2nc3[nH]c(=O)cc(O)c3s2)c1
Second: Cc1ccc2oc(-c3cccc(NC(=O)c4ccccn4)c3)nc2c1
The “hERG current change (%, negative = inhibition) at 10uM” value of the first is lower: -0.789% for the first, 17.1% for the second.

Compared with `COc1ccc(CNC(=O)CS(=O)Cc2nc(-c3ccc(C)cc3)oc2C)cc1` (stereo not shown), `COC(=O)c1ccc(-c2nc(CN3CCCN(C(=O)c4ccco4)CC3)c(C)o2)cc1` is lower in “hERG current change (%, negative = inhibition) at 10uM” value: -20.1% for the first, -41.4% for the second.

First: COc1cc(S(=O)(=O)N2CCCCC2)ccc1NC(=O)Cc1ccccc1
Second: Cc1ccccc1OCC(=O)OCC(=O)Nc1cc(S(=O)(=O)N2CCCCC2)ccc1Cl
The “hERG current change (%, negative = inhibition) at 10uM” value of the first is higher: 12.3% for the first, 2.23% for the second.

First: CC(C)[C@H]1C(=O)Nc2ccccc2N1C(=O)N[C@@H](Cc1ccccc1)C(=O)N[C@H](C(=O)O)c1ccccc1
Second: O=C(NCc1ccccc1)[C@@H]1C[C@H]1[C@@H](NP(=O)(c1ccccc1)c1ccccc1)c1ccccc1
The “hERG current change (%, negative = inhibition) at 10uM” value of the first is higher: 17.7% for the first, 11% for the second.

Compared with `O=C(NCCc1ccccc1Cl)C1CCC(=O)N(C2CCCCCC2)C1` (stereo not shown), `CC(C)N(Cc1ccccc1)C(=S)NC1CCCCC1` is higher in “hERG current change (%, negative = inhibition) at 10uM” value: -6.22% for the first, -6.03% for the second.

Going from `CCC(Cc1c(I)cc(I)c(N)c1I)C(=O)O` (stereo not shown) to `CCc1cc2c(SCc3ccc(C(=O)OC)o3)ncnc2s1`, the “hERG current change (%, negative = inhibition) at 10uM” value rises from -0.155% to 16%.

Compared with `COc1ccc(NC(=S)N2CCC(NC(=O)c3cccc(F)c3)CC2)cc1`, `COc1ccc(NC(=O)c2cc(-c3ccccc3)on2)cc1` is higher in “hERG current change (%, negative = inhibition) at 10uM” value: -16.7% for the first, 15.9% for the second.

Going from `CCCC(=O)NC(C)C(c1cccs1)N1CCN(C)CC1` (stereo not shown) to `Cc1ccc(C(=O)NCC(=O)NCC(c2cccs2)N2CCOCC2)cc1` (stereo not shown), the “hERG current change (%, negative = inhibition) at 10uM” value rises from 0.74% to 9.82%.

Compared with `COCCNC(=O)c1ccccc1-c1nc(-c2ccccc2Cl)no1`, `O=C(COc1ccccc1Cl)Nc1ccccc1C(=O)N1CCCCC1` is lower in “hERG current change (%, negative = inhibition) at 10uM” value: -9.09% for the first, -20.1% for the second.

First: COCCn1c(=O)[nH]c2cc(C(=O)N3CCN(c4ccccc4OC)CC3)ccc2c1=O
Second: O=C(CN1C(=O)c2cccc3cccc1c23)N1CCN(c2ccccc2)CC1
The “hERG current change (%, negative = inhibition) at 10uM” value of the first is higher: 5.76% for the first, -1.09% for the second.

Going from `Cc1[nH]nc2c1C(c1ccccc1F)CC(=O)N2` (stereo not shown) to `CCC1(C)Cc2ccccc2-c2nc(NCCO)n(-c3ccc(C)cc3)c(=O)c21` (stereo not shown), the “hERG current change (%, negative = inhibition) at 10uM” value falls from -6.07% to -25.1%.

Going from `Cc1ccc(NC(=O)COc2ccc(-n3cnnn3)cc2)cc1C` to `COc1ccc(-n2nc([N+](=O)[O-])c(=NCCc3ccc(OC)c(OC)c3)n2O)cc1`, the “hERG current change (%, negative = inhibition) at 10uM” value falls from 9.71% to 2.49%.

First: Cn1nc(C(=O)OCC(=O)Nc2ccc(Cl)cc2Cl)c2ccccc2c1=O
Second: O=C(NCCc1nc2ccccc2[nH]1)/C(=C/c1ccc2c(c1)OCO2)NC(=O)c1ccc(Cl)cc1Cl
The “hERG current change (%, negative = inhibition) at 10uM” value of the first is higher: 4.9% for the first, -76.3% for the second.

First: COc1ccc(-c2nn(-c3ccccc3)cc2/C=C/C(=O)N2CCN(c3ccccn3)CC2)cc1
Second: CCOC(=O)Cn1c(=O)oc2cc(S(=O)(=O)N3CCN(c4ccccn4)CC3)ccc21
The “hERG current change (%, negative = inhibition) at 10uM” value of the first is lower: 1.28% for the first, 16.7% for the second.

Compared with `O=C(CN1C(=O)NC2(CCCC2)C1=O)OCc1cccc(Br)c1`, `Cc1ccc(NC(=O)CN2C(=O)N/C(=C/c3ccccc3OCc3cccc(C(=O)O)c3)C2=O)cc1` is higher in “hERG current change (%, negative = inhibition) at 10uM” value: -13.1% for the first, 22.6% for the second.

Compared with `COc1ccc2nc(NC(=O)c3ccoc3C)sc2c1`, `Cc1cnc(NC(=O)c2ccco2)s1` is lower in “hERG current change (%, negative = inhibition) at 10uM” value: 14.4% for the first, 13.9% for the second.

First: COc1cc(C(=O)NCCC(=O)NCCN2CCOCC2)cc(OC)c1OC
Second: CCCn1c(CCc2ccccc2)nnc1SCC(=O)N1CCOCC1
The “hERG current change (%, negative = inhibition) at 10uM” value of the first is higher: 2.31% for the first, -0.0248% for the second.

Going from `OC1(c2ccc3c(c2)OCO3)CCN(Cc2ccc(F)cc2)CC1` to `Cc1ccc(CN2CCC(n3nccc3NC(=O)CCCc3ccccc3)CC2)o1`, the “hERG current change (%, negative = inhibition) at 10uM” value rises from -51.4% to -20.5%.

Compared with `Cc1[nH]n(-c2ccccc2)c(=O)c1C=Nc1ccc(S(=O)(=O)Nc2nccs2)cc1`, `COc1ccccc1OCC(=O)N/N=C/c1cccc2cccnc12` is lower in “hERG current change (%, negative = inhibition) at 10uM” value: 23.2% for the first, -6.65% for the second.

Compared with `CC(C)COc1ccc(CNC(=S)Nc2ccccc2)cc1Cl`, `CCOc1cc(/C=N/NC(=O)CCn2nnc3ccccc32)ccc1O` is lower in “hERG current change (%, negative = inhibition) at 10uM” value: 8.6% for the first, -2.28% for the second.

First: O=S1(=O)CCN(Cc2csc(-c3cccs3)n2)CC1
Second: COc1ccc(/C=C/C(=O)OCC(=O)NC2CCS(=O)(=O)C2)cc1 (stereo not shown)
The “hERG current change (%, negative = inhibition) at 10uM” value of the first is higher: 1.07% for the first, -12.9% for the second.

First: COc1ccc(/C=N/NC(=O)c2cccc(NC(=O)c3ccc(F)cc3)c2)c(C(=O)O)c1OC
Second: C/C(=N\NC(=O)c1ccc(Br)cc1)c1cccc(NC(=O)c2cccnc2)c1
The “hERG current change (%, negative = inhibition) at 10uM” value of the first is higher: 17.9% for the first, -24.4% for the second.

First: O=C(CN1C(=O)CC(c2ccco2)Sc2ccccc21)NCC1CCCO1 (stereo not shown)
Second: O=C(NCCc1ccccc1)C(=O)NCC1OCCCN1S(=O)(=O)c1cccs1 (stereo not shown)
The “hERG current change (%, negative = inhibition) at 10uM” value of the first is lower: -7.29% for the first, -2.83% for the second.

First: CN1C(=O)CC(N2CCN(C(=O)CN3CCCC3)CC2)C1=O (stereo not shown)
Second: Cl.N=c1sccn1CC(=O)Nc1ccc2c(c1)CCC2
The “hERG current change (%, negative = inhibition) at 10uM” value of the first is higher: -2.63% for the first, -14.1% for the second.

With `CC(=O)c1c(C)[nH]c(C(=O)Nc2ccc3c(c2)OCCO3)c1C` the “hERG current change (%, negative = inhibition) at 10uM” value was 20.2%.
